{
  "source": "the supplement of paper PMC12632987",
  "binders": {"B1": {"name": "GBRAP_172_5007 (protein)", "chain": "SYKEIRKVIDSEDAEEAKRELERVIREASKYPGAIVAIAVRVKNEEDAEEVEAYGEALAKKYPHITVEIFVSHDPSLNLEQIAQALLDNAILEREEEEEE"}, "B2": {"name": "GBRAP_160_4070 (protein)", "chain": "SEELEKLKKEIEEIFDEAIEMMKGENHENRVTIARVMRGEVVLLLEENPSISEEAVEAADKIGDELVATLEANPDLTDEEIEKLIKEARAKILKAIEEHT"}, "B3": {"name": "GBRAP_128_3599 (protein)", "chain": "AAEEAAAYAREMMEKIKNSDDAEAAEIAKELADYLLGLSLEEVEAVAKEIIKRLPELTADKLVILQDALHAAAKKASPEKAEVLLYALGEAGEEAYELEE"}, "B4": {"name": "GBRAP_52_5957 (protein)", "chain": "MEEEIERDAEELLALVRAGDEEGARALAREIARTYNDEELRLFAEVLARRAREAAPEDLDAIWRLAEILAEEIERAGKDPALAGDLLAKVAAAIYEKELE"}, "B5": {"name": "GBRAP_184_5294 (protein)", "chain": "KVKEVVIEAETAEEALKKIEEAAEEAKKEGVKLELYLYLKNVSAEGFEKIAKKLKELKEEGIIEKAIVDLLDEKSEEEVDKFVKIADEAGINLVVALSDE"}, "B6": {"name": "GBRAP_186_5388 (protein)", "chain": "EEEAEEELDRVIDEAEAQGYTVIVSYLENKSLEEQKEAIKRDAEAVAALAKETGKKYALIVYVKTKKEDIEKLKEFAKELNEKYLAETGVLVRLVVEDSE"}, "B7": {"name": "GBRAP_52_6289 (protein)", "chain": "SEEEVEKIVEEIVELIKEGKLEEAIELARRAARELSLEEVLRLGELLIERIKTLPEEHLELAWEVVEELAREIEERFGAEEEADYLEARAAAAIYERLQA"}, "B8": {"name": "GBRAP_131_3606 (protein)", "chain": "LKGRLAVIDEPLSVEEMLARVDEIIEEAVEEGADAVVIRLRNQSPEVYEAAEERVDERDEELLEERGMRLVVLPPGTTEEEARNILEALLLEVELEKEEE"}, "B9": {"name": "GBRAP_11_2729 (protein)", "chain": "KKAQLKALAEQAEALAKEIEALIKEGATEEKLKALAKQAKALADQAKAIGAPQSIVDDLQFAADSLEEAIKDPSNTEEHLKEAAAAARVAAGQLLLELEE"}, "B10": {"name": "GBRAP_26_5431 (protein)", "chain": "VSEIIDKMLDKLDAAFDELLDPDKAAMAKAEVATELEEVEEKIEEEDLSIEEIKELFEEMIEEIIEFLKELGVSEETIEKLREYMEEVAEEALEEIEKER"}, "B11": {"name": "GBRAP_35_5554 (protein)", "chain": "EFDKEVLEMMKATAEDVLLAVEDMDPETLFATTTSIGNATLKLIEEEKEEKEEMKELAEATLEAIDAAIKKLEEQGAPKEDIEKLKELKKKIEEALKKRE"}, "B12": {"name": "GBRAP_160_4604 (protein)", "chain": "MEEVEKLVEELEEIAEEAVAMIEGQSPEERLVIVRVAAGEIRLLLDESPIVTDEVEDFADEVLDALIATVEANPDLSVEELAALFAETIEKIREKLEEEA"}, "B13": {"name": "GBRAP_14_3838 (protein)", "chain": "SEELRKLLLEVVDRAVAAVAELAPPEDAPEVAALRERLEEAVEEVLKLGDFEEAEKRLLEVAEETVDELFAHLPATERAAIRAEALDVLLEGLEEVEEKL"}, "B14": {"name": "GBRAP_14_3833 (protein)", "chain": "MEEVKRVIRETVEEIRDSLSRMFPEKAEEIAEALDRILERVLRLLEETGDVEEALELLERETLAAVDEILADESPEAQAAARAEVINEIAEAEEEIEELL"}, "B15": {"name": "GBRAP_52_5960 (protein)", "chain": "MEEKMKKLVEELLKLAKEGKEEELEKKLREIARTLNEEELEKLAEVMAEKVEESDLETAEILLDIALRLGDILIEEGRDEGIASLIEAKVAAAAYKLEQK"}, "B16": {"name": "GBRAP_11_2616 (protein)", "chain": "KKEALKKAAELAEKLAETVQKLLEEGVDNEELRKEAEELLKELKELVKKELDEAHKTDVEVLEELWEEAKADPERAEEYARQLLAAARVFEGNMLLDIEE"}, "B17": {"name": "GBRAP_160_4463 (protein)", "chain": "KEEVKEAVEELRERVEEVLEDSENMSPEQILLAVAVEVGSSLLEWEEEGKISDEQAEILAKAIDELLRLAKEEKNASPEEAKKRAREIVEKAAKEILAAA"}, "B18": {"name": "GBRAP_184_5184 (protein)", "chain": "MIYEKTIKFENVEELVEQIKKIAEEVKGKNVNLYIILEAEEVTVEMAEAALNELGKIKKSGYAKSITVLVEGNVSEEVVDVLVEKAKEAGINVTIALPEE"}, "B19": {"name": "GBRAP_53_6402 (protein)", "chain": "MEEEIERLKEEILRLTEEATKADDEEREKLVKEIGEKLKKLKEAGMPEEEIEELAREVAKKLKEAGAPDRHLTLLAQKLEELGLEEATAEIGELLVEDLE"}},
  "note": "Over roughly 4,500 sequences, “median log2 fold change of GCK-ALFA target abundance (FLAG IP / Myc IP barcode read proportion)” has its median near 0.078; the lowest 2% begin near -0.6. This is one part of the list.",
  "data": [
    {"target": "GABARAP, O95166", "sequence (O95166 whole entry, the tested form may be a part)": "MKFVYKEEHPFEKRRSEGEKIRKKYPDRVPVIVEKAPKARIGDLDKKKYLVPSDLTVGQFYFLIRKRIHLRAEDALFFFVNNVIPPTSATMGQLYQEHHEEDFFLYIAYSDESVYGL", "experiment": "median log2 fold change of GCK-ALFA target abundance (FLAG IP / Myc IP barcode read proportion) (log2 ratio); each designed protein is fused to an ALFA-tag nanobody in HEK293 cells to bring the named protein to FLAG-tagged glucokinase (GCK); Myc marks an untargeted standard; higher = target protein stabilised (more abundant)", "conditions": "target protein: 3xFLAG-MCP-GCK-ALFA reporter; HEK293 landing pad (RPLP)", "how_it_was_run": "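An ALFA-nanobody-fused binder library was recombined into HEK293 landing-pad cells and induced with 2 μg mL^−1 doxycycline. Cells were transfected with a plasmid expressing a FLAG-tagged target and a Myc-tagged standard. After 48 h, lysates underwent anti-FLAG and anti-Myc immunoprecipitation, and circular RNA barcodes were reverse transcribed, amplified and sequenced. Target abundance is the per-binder median log2 ratio of FLAG to Myc barcode read proportions. Barcodes needed ≥10^−7 proportion in both replicates, binders ≥3 barcodes per replicate, and a 10^−6 pseudocount was added; the two replicates were pooled.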", "values": [
      {"binder": "B1", "median log2 fold change": 0.111},
      {"binder": "B2", "median log2 fold change": -0.32},
      {"binder": "B3", "median log2 fold change": 0.335},
      {"binder": "B4", "median log2 fold change": -0.00895},
      {"binder": "B5", "median log2 fold change": -0.157},
      {"binder": "B6", "median log2 fold change": -0.0259},
      {"binder": "B7", "median log2 fold change": -0.123},
      {"binder": "B8", "median log2 fold change": -0.0292},
      {"binder": "B9", "median log2 fold change": 0.241},
      {"binder": "B10", "median log2 fold change": -0.364},
      {"binder": "B11", "median log2 fold change": 0.441},
      {"binder": "B12", "median log2 fold change": -0.0855},
      {"binder": "B13", "median log2 fold change": -0.0168},
      {"binder": "B14", "median log2 fold change": -0.119},
      {"binder": "B15", "median log2 fold change": -0.0314},
      {"binder": "B16", "median log2 fold change": 0.265},
      {"binder": "B17", "median log2 fold change": -0.697},
      {"binder": "B18", "median log2 fold change": 0.0551},
      {"binder": "B19", "median log2 fold change": 0.433}
    ]}
  ]
}
